Test results published in the supplement of paper PMC7238544.
Counter-ions that a name gives are not always drawn. ± gives the standard deviation of the averaged measurements. Some of the results follow.

Assays:
Details in all cases: priming compound concentration 100 µM
hAMSC donor 1 [1] = test: Hoechst total cell count ratio vs vehicle control; higher = more cells (less toxicity)
hAMSC donor 2 [2] = test: as above
hAMSC donor 1 [3] = test: transgenic luciferase activity (RLU/mg protein) fold change vs vehicle control (ratio); higher = more transgene expression
hAMSC donor 2 [4] = test: as above
hAMSC donor 1 [5] = test: transfection efficiency (EGFP+ cells / Hoechst count) fold change vs vehicle control (ratio); hAMSC are human adipose-derived mesenchymal stem cells given an EGFP-luciferase plasmid by lipofection; higher = enhanced transfection
hAMSC donor 2 [6] = test: as above
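Wherever Hoechst total cell count ratio vs vehicle control is given: compound added 30 min before Lipofectamine 3000 lipoplex delivery, triplicate-well means expressed against DMSO vehicle control wells of the same 96-well plate.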
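Wherever transfection efficiency (EGFP+ cells / Hoechst count) fold change vs vehicle control is given: compounds added 30 min before Lipofectamine 3000 lipoplex transfection, triplicate means relative to DMSO vehicle wells on the same plate, luciferase RLU normalized to BCA total protein.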
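Wherever transgenic luciferase activity (RLU/mg protein) fold change vs vehicle control is given: compounds in DMSO added 30 min before Lipofectamine 3000 transfection of pEGFP-Luc in 96-well plates, values are means of triplicate wells over DMSO vehicle wells on the same plate.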

Row | Structure (SMILES) | Hoechst total cell count ratio (hAMSC donor 1 [1]) | Hoechst total cell count ratio (hAMSC donor 2 [2]) | transgenic luciferase activity (hAMSC donor 1 [3]) | transgenic luciferase activity (hAMSC donor 2 [4]) | transfection efficiency (hAMSC donor 1 [5]) | transfection efficiency (hAMSC donor 2 [6])
1 | C=C1C[C@@H]2[C@H](CC[C@]3(C)C(=O)CC[C@@H]23)[C@@]2(C)C=CC(=O)C=C12 [Exemestane] | 1.38 ± 0.22 | 0.967 ± 0.19 | 0.691 ± 0.22 | 0.885 ± 0.12 | 0.731 ± 0.36 | 0.785 ± 0.07
2 | CC(C)[C@]12O[C@H]1[C@@H]1O[C@]13[C@]1(O[C@H]1C[C@H]1C4=C(CC[C@@]13C)C(=O)OC4)[C@@H]2O [Triptolide] | 0.81 ± 0.036 | 0.258 ± 0.028 | 0.0038 ± 0.0032 | 0.0139 ± 0.011 | 0.0363 ± 0.011 | 0.259 ± 0.27
3 | O=C(O)CCCc1ccc(N(CCCl)CCCl)cc1 [Chlorambucil] | 0.661 ± 0.093 | 0.506 ± 0.043 | 0.353 ± 0.097 | 0.313 ± 0.15 | 1.17 ± 0.4 | 1.4 ± 0.19
4 | CN1[C@@H]2C[C@@H](OC(=O)[C@H](CO)c3ccccc3)C[C@H]1[C@@H]1O[C@@H]12 [Scopolamine hydrobromide] | 1.09 ± 0.15 | 1.17 ± 0.15 | 4.09 ± 1.4 | 0.731 ± 0.13 | 1.55 ± 0.16 | 1.28 ± 0.07
5 | Oc1ccc2c3c1O[C@H]1[C@@H](O)CC[C@@]4(O)[C@@H](C2)N(CC2CCC2)CC[C@]314 [Nalbuphine hydrochloride] | 1.48 ± 0.12 | 1.23 ± 0.051 | 1.74 ± 0.93 | 0.897 ± 0.042 | 1.12 ± 0.13 | 0.85 ± 0.11
6 | C[N+]1(C)CCN(c2ccccc2)CC1 [1,1-Dimethyl-4-phenylpiperazinium iodide] | 0.962 ± 0.15 | 1.16 ± 0.039 | 0.263 ± 0.032 | 0.893 ± 0.23 | 1.02 ± 0.19 | 1.09 ± 0.22
7 | CCN(C(C)=O)c1cccc(-c2ccnc3c(C#N)cnn23)c1 [Zaleplon] | 1.56 ± 0.11 | 1.37 ± 0.16 | 0.698 ± 0.28 | 1.18 ± 0.21 | 0.648 ± 0.45 | 0.993 ± 0.074
8 | COc1ccc2[nH]cc(C3=CCNCC3)c2c1 | 1.75 ± 0.1 | 2.78 ± 0.3 | 1.15 ± 0.38 | 0.629 ± 0.1 | – | –
9 | C=CCN1CC[C@]23c4c5ccc(O)c4O[C@H]2C(=O)CC[C@@]3(O)[C@H]1C5 [Naloxone hydrochloride] | 1.37 ± 0.17 | 1.33 ± 0.42 | 0.381 ± 0.076 | 0.849 ± 0.19 | 0.726 ± 0.064 | 0.95 ± 0.076
10 | CN1CCN(C(=O)O[C@H]2c3nccnc3C(=O)N2c2ccc(Cl)cn2)CC1 [Eszopiclone] | 1.34 ± 0.086 | 1.47 ± 0.2 | 0.668 ± 0.2 | 0.885 ± 0.059 | 0.527 ± 0.23 | 0.871 ± 0.039
11 | O=C1CN=C(c2ccccc2)c2cc([N+](=O)[O-])ccc2N1 [Nitrazepam] | 1.38 ± 0.23 | 1.3 ± 0.22 | 0.471 ± 0.48 | 1.01 ± 0.61 | 1.3 ± 0.04 | 1.14 ± 0.16
12 | C[C@]12CC[C@H]3[C@@H](CCC4=CC(=O)CC[C@@]43C)[C@@H]1CC[C@@H]2O [Testosterone] | 1.28 ± 0.065 | 0.657 ± 0.13 | 0.535 ± 0.24 | 0.264 ± 0.14 | 1.11 ± 0.31 | 1.14 ± 0.13
13 | Cc1ccc(-c2nc3ccc(C)cn3c2CC(=O)N(C)C)cc1 [Zolpidem tartrate] | 1.16 ± 0.17 | 0.957 ± 0.19 | 0.979 ± 0.44 | 1.54 ± 0.44 | 1.53 ± 0.1 | 1.78 ± 0.47
14 | c1ccc(Cn2ccnc2)cc1 [Benzylimidazole] | 1.55 ± 0.4 | 1.4 ± 0.1 | 0.31 ± 0.037 | 0.104 ± 0.027 | 0.983 ± 0.11 | 1.15 ± 0.36
15 | OC1CCCCC1N1CCC(c2ccccc2)CC1 (racemic) [(+/-)-Vesamicol hydrochloride] | 1.39 ± 0.41 | 1.08 ± 0.083 | 0.893 ± 0.31 | 1.05 ± 0.39 | 0.999 ± 0.34 | 0.966 ± 0.094
16 | C=C(C)[C@@H]1[C@H]2OC(=O)[C@@H]1[C@]1(O)C[C@H]3O[C@]34C(=O)O[C@H]2[C@]14C.CC(C)(O)[C@@H]1[C@H]2OC(=O)[C@@H]1[C@]1(O)C[C@H]3O[C@]34C(=O)O[C@H]2[C@]14C [Picrotin - Picrotoxinin] | 1.31 ± 0.13 | 1.04 ± 0.1 | 0.19 ± 0.026 | 1.57 ± 0.38 | 0.73 ± 0.097 | 1.26 ± 0.31
17 | COc1ccc(CCN)cc1OC [Homoveratrylamine] | 1.17 ± 0.054 | 1.09 ± 0.21 | 2.5 ± 0.48 | 0.84 ± 0.26 | 0.989 ± 0.084 | 1.81 ± 0.58
18 | CC(O)(CS(=O)(=O)c1ccc(F)cc1)C(=O)Nc1ccc(C#N)c(C(F)(F)F)c1 (centres undefined) [Bicalutamide] | 1.23 ± 0.074 | 1.93 ± 0.43 | 0.627 ± 0.079 | 0.868 ± 0.12 | 0.593 ± 0.085 | 0.818 ± 0.029
19 | CNCC(O)c1ccc(O)cc1 (centres undefined) [Synephrine] | 1.77 ± 0.24 | 1.07 ± 0.15 | 1.02 ± 0.091 | 0.676 ± 0.24 | 0.942 ± 0.13 | 0.58 ± 0.13
20 | CC[C@@H](C(N)=O)N1CCCC1=O [Levetiracetam] | 1.66 ± 0.13 | 1.61 ± 0.15 | 0.914 ± 0.61 | 1.34 ± 0.075 | 0.63 ± 0.079 | 0.922 ± 0.23
21 | CCOC(=O)c1cncn1[C@H](C)c1ccccc1 [Etomidate] | 1.6 ± 0.1 | 2.07 ± 0.21 | 0.874 ± 0.54 | 0.234 ± 0.033 | 0.756 ± 0.09 | 0.775 ± 0.16

Row | Structure (SMILES) | Hoechst total cell count ratio (hAMSC donor 1 [1]) | Hoechst total cell count ratio (hAMSC donor 2 [2]) | transgenic luciferase activity (hAMSC donor 1 [3]) | transgenic luciferase activity (hAMSC donor 2 [4]) | transfection efficiency (hAMSC donor 1 [5]) | transfection efficiency (hAMSC donor 2 [6])
22 | O=c1c2ccccc2[se]n1-c1ccccc1 [Ebselen] | 0.0567 ± 0.036 | 0.202 ± 0.072 | 0.701 ± 0.79 | 0.301 ± 0.26 | 2.92 ± 2.4 | 0.156 ± 0.059
23 | COc1ccc(C(CN(C)C)C2(O)CCCCC2)cc1 (centres undefined) [Venlafaxine hydrochloride] | 1.76 ± 0.33 | 1.05 ± 0.098 | 0.907 ± 0.14 | 0.571 ± 0.16 | 1.22 ± 0.27 | 0.93 ± 0.13
24 | C[C@]12C/C(=C/O)C(=O)C[C@@H]1CC[C@@H]1[C@@H]2CC[C@@]2(C)[C@H]1CC[C@]2(C)O [Oxymetholone] | 1.76 ± 0.063 | 0.386 ± 0.058 | 0.287 ± 0.14 | 0.717 ± 0.35 | 0.444 ± 0.038 | 1.12 ± 0.25
25 | CN1CCC23CCCCC2C1Cc1ccc(O)cc13 [Dextrorphan D-tartrate] | 1.77 ± 0.14 | 1.21 ± 0.14 | 0.339 ± 0.11 | 0.685 ± 0.044 | 1.17 ± 0.38 | 1.2 ± 0.25
26 | C[C@H]1CCC[C@H](O)CCCCCc2cc(O)cc(O)c2C(=O)O1 [Zeranol] | 1.37 ± 0.23 | 1.465 ± 0.0051 | 1.22 ± 1.2 | 1.31 ± 0.47 | 0.942 ± 0.24 | 0.858 ± 0.25
27 | NC(=O)OCCCc1ccccc1 [Phenprobamate] | 1.43 ± 0.092 | 1.04 ± 0.081 | 0.66 ± 0.77 | 0.697 ± 0.17 | 1.24 ± 0.22 | 0.842 ± 0.12
28 | CCCCC/C=C\C/C=C\C/C=C\C/C=C\CCCC(=O)Nc1ccc(O)cc1 | 0.226 ± 0.022 | 0.0363 ± 0.025 | 0.000408 ± 0.0002 | 0.000311 ± 0.00012 | 0.0854 ± 0.0081 | 0.0397 ± 0.069
29 | COc1ccc2[nH]cc(CCN)c2c1 [5-Methoxytryptamine] | 1.31 ± 0.12 | 1.53 ± 0.19 | 0.572 ± 0.23 | 0.54 ± 0.052 | 0.581 ± 0.12 | 0.549 ± 0.12
30 | CS(=O)(=O)Nc1ccc(Cc2noc(-c3ccc4[nH]cc(CCN)c4c3)n2)cc1 | 0.972 ± 0.14 | 1.39 ± 0.29 | 0.424 ± 0.16 | 0.539 ± 0.045 | 0.586 ± 0.096 | 0.712 ± 0.11
31 | CN1C(=O)CN=C(c2ccccc2)c2cc([N+](=O)[O-])ccc21 [Nimetazepam] | 1.26 ± 0.12 | 0.76 ± 0.11 | 0.919 ± 0.18 | 0.74 ± 0.11 | 0.701 ± 0.031 | 1.21 ± 0.14
32 | O=P1(N(CCCl)CCCl)NCCCO1 (centres undefined) [Cyclophosphamide hydrate] | 1.35 ± 0.047 | 1.6 ± 0.019 | 0.295 ± 0.099 | 0.528 ± 0.093 | 0.648 ± 0.11 | 0.872 ± 0.016
33 | CN(C)C(=O)Oc1ccc[n+](C)c1 [Pyridostigmine bromide] | 1.21 ± 0.13 | 1.4 ± 0.12 | 2.17 ± 0.47 | 1.3 ± 0.097 | 1.18 ± 0.24 | 1.51 ± 0.077
34 | CCOC(=O)C1(c2ccccc2)CCN(CCC(C#N)(c2ccccc2)c2ccccc2)CC1 [Diphenoxylate hydrochloride] | 1.03 ± 0.19 | 0.779 ± 0.14 | 0.743 ± 0.16 | 0.871 ± 0.27 | 1.26 ± 0.089 | 0.856 ± 0.14
35 | C[N+]1(CCC(C(N)=O)(c2ccccc2)c2ccccc2)CCCCC1 [Fenpiverinium bromide] | 1.37 ± 0.092 | 1.07 ± 0.25 | 1.49 ± 0.95 | 1 ± 0.25 | 0.932 ± 0.15 | 1.12 ± 0.22
36 | COc1cc([C@@H]2c3cc4c(cc3[C@H](O)[C@H]3COC(=O)[C@H]23)OCO4)cc(OC)c1OC [Podofilox] | 0.766 ± 0.12 | 1.25 ± 0.17 | 1.86 ± 1.4 | 0.617 ± 0.12 | 0.959 ± 0.16 | 0.776 ± 0.1
37 | CCC1(c2ccc(N)cc2)CCC(=O)NC1=O (centres undefined) [Aminoglutethimide] | 1.09 ± 0.13 | 1.45 ± 0.23 | 0.378 ± 0.14 | 0.737 ± 0.17 | 0.829 ± 0.11 | 0.802 ± 0.16
38 | C=C(C)CN1CC[C@@]23c4c5ccc(O)c4O[C@H]2c2[nH]c4ccccc4c2C[C@]3(O)C1C5 [SDM25N hydrochloride] | 0.21 ± 0.027 | 0.0577 ± 0.032 | 0.00403 ± 0.0007 | 0.000637 ± 0.00069 | 0.406 ± 0.28 | 0.461 ± 0.41
39 | CC[C@]1(O)CC[C@H]2[C@@H]3CCC4=CCCC[C@@H]4[C@H]3CC[C@@]21C [Ethylestrenol] | 1.39 ± 0.2 | 1.08 ± 0.37 | 0.424 ± 0.24 | 0.892 ± 0.085 | 0.884 ± 0.44 | 1.02 ± 0.19
40 | CC[C@@H]1/C=C/C=C/C[C@H](C)[C@H](O)[C@](C)(O)C(=O)[C@H](C)[C@@H](O)[C@H](C)C(=O)[C@H](C)[C@@H](O)[C@H](C)/C=C/C(=O)O[C@H]2[C@@H](C)[C@@H](CC1)O[C@@]1(CC[C@@H](C)[C@@H](C[C@H](C)O)O1)[C@@H]2C [Oligomycin A] | 0.278 ± 0.07 | 0.283 ± 0.057 | 0.124 ± 0.1 | 0.509 ± 0.42 | 0.721 ± 0.37 | 0.588 ± 0.31
41 | C[C@]12CCC(=O)C[C@@H]1CC[C@@H]1[C@@H]2CC[C@@]2(C)[C@H]1CC[C@]2(C)O [Mestanolone] | 1.46 ± 0.18 | 0.885 ± 0.12 | 0.343 ± 0.3 | 1.31 ± 0.55 | 1.03 ± 0.099 | 1.25 ± 0.36
